Test results reported in the supplement of paper PMC9927326.
MIC of clinical C. albicans isolates, CLSI broth microdilution (ranges and time not stated); higher = less susceptible. Call: susceptible or wild type [S] / resistant or non-wild type [R] by CLSI breakpoints or epidemiological cut-offs; intermediate and dose-dependent carry no call here (the paper groups them with resistant). '<=' and '>=' mark each drug's lowest and highest value, inferred; the source prints them plain. Isolates are numbered anew.

How the values were obtained:
Assay in all cases: CLSI broth microdilution.
flucytosine = compound: Nc1[nH]c(=O)ncc1F [flucytosine]
voriconazole = compound: C[C@@H](c1ncncc1F)[C@](O)(Cn1cncn1)c1ccc(F)cc1F [voriconazole]
itraconazole = compound: CCC(C)n1ncn(-c2ccc(N3CCN(c4ccc(OCC5COC(Cn6cncn6)(c6ccc(Cl)cc6Cl)O5)cc4)CC3)cc2)c1=O [itraconazole]
fluconazole = compound: OC(Cn1cncn1)(Cn1cncn1)c1ccc(F)cc1F [fluconazole]
micafungin = compound: CCCCCOc1ccc(-c2cc(-c3ccc(C(=O)N[C@H]4C[C@@H](O)[C@@H](O)NC(=O)[C@@H]5[C@@H](O)[C@@H](C)CN5C(=O)[C@H]([C@H](O)CC(N)=O)NC(=O)[C@H]([C@H](O)[C@@H](O)c5ccc(O)c(OS(=O)(=O)O)c5)NC(=O)[C@@H]5C[C@@H](O)CN5C(=O)[C@H]([C@@H](C)O)NC4=O)cc3)no2)cc1 [micafungin]
anidulafungin = compound: CCCCCOc1ccc(-c2ccc(-c3ccc(C(=O)N[C@H]4C[C@@H](O)[C@@H](O)NC(=O)[C@@H]5[C@@H](O)[C@@H](C)CN5C(=O)[C@H]([C@@H](C)O)NC(=O)[C@H]([C@H](O)[C@@H](O)c5ccc(O)cc5)NC(=O)[C@@H]5C[C@@H](O)CN5C(=O)[C@H]([C@@H](C)O)NC4=O)cc3)cc2)cc1 [anidulafungin]
amphotericin B = compound: C[C@@H]1[C@H](O)[C@@H](C)/C=C/C=C/C=C/C=C/C=C/C=C/C=C/[C@H](O[C@@H]2O[C@H](C)[C@@H](O)[C@H](N)[C@@H]2O)C[C@@H]2O[C@](O)(C[C@@H](O)C[C@@H](O)[C@H](O)CC[C@@H](O)C[C@@H](O)CC(=O)O[C@H]1C)C[C@H](O)[C@H]2C(=O)O [amphotericin B]
posaconazole = compound: CC[C@@H]([C@H](C)O)n1ncn(-c2ccc(N3CCN(c4ccc(OC[C@@H]5CO[C@@](Cn6cncn6)(c6ccc(F)cc6F)C5)cc4)CC3)cc2)c1=O [posaconazole]
caspofungin = compound: CC[C@H](C)C[C@H](C)CCCCCCCCC(=O)N[C@H]1C[C@@H](O)[C@@H](NCCN)NC(=O)[C@@H]2[C@@H](O)CCN2C(=O)[C@H]([C@H](O)CCN)NC(=O)[C@H]([C@H](O)[C@@H](O)c2ccc(O)cc2)NC(=O)[C@@H]2C[C@@H](O)CN2C(=O)[C@H]([C@@H](C)O)NC1=O [caspofungin]

Test System | MIC (flucytosine) | MIC (voriconazole) | MIC (itraconazole) | MIC (fluconazole) | MIC (micafungin) | MIC (anidulafungin) | MIC (amphotericin B) | MIC (posaconazole) | MIC (caspofungin)
Candida albicans isolate 334 (Erg11p: G448E,Y132H, Fur1p: R101C, Tac1p: WT) | 0.5 mg/L [S] | 0.5 mg/L | 0.12 mg/L [S] | 4 mg/L | 0.015 mg/L [S] | ≤ 0.015 mg/L [S] | 0.5 mg/L [S] | 0.03 mg/L [S] | ≤ 0.008 mg/L [S]
Candida albicans isolate 295 (Erg11p: WT, Fur1p: WT, Tac1p: A377V,F189S,N174D,M170I,K87N) | ≤ 0.06 mg/L [S] | ≤ 0.008 mg/L [S] | 0.03 mg/L [S] | 0.5 mg/L [S] | ≤ 0.008 mg/L [S] | 0.06 mg/L [S] | 0.5 mg/L [S] | 0.015 mg/L [S] | 0.015 mg/L [S]
Candida albicans isolate 106 (Erg11p: V437I,E266D, Fur1p: WT, Tac1p: F189S,N174D,M170I,A90T,K87N) | ≤ 0.06 mg/L [S] | 0.015 mg/L [S] | 0.06 mg/L [S] | 1 mg/L [S] | 0.015 mg/L [S] | 0.12 mg/L [S] | 0.5 mg/L [S] | 0.03 mg/L [S] | 0.06 mg/L [S]
Candida albicans isolate 78 (Erg11p: WT, Fur1p: WT, Tac1p: N896S) | ≤ 0.06 mg/L [S] | ≤ 0.008 mg/L [S] | ≤ 0.015 mg/L [S] | 0.25 mg/L [S] | ≤ 0.008 mg/L [S] | ≤ 0.015 mg/L [S] | 0.5 mg/L [S] | 0.015 mg/L [S] | 0.015 mg/L [S]
Candida albicans isolate 314 (Erg11p: WT, Fur1p: WT, Tac1p: N896S,I895T) | 0.12 mg/L [S] | ≤ 0.008 mg/L [S] | 0.06 mg/L [S] | 0.5 mg/L [S] | 0.015 mg/L [S] | ≤ 0.015 mg/L [S] | 0.5 mg/L [S] | 0.03 mg/L [S] | 0.06 mg/L [S]
Candida albicans isolate 52 (Erg11p: V488I,E266D, Fur1p: WT, Tac1p: N896S,I895T) | ≤ 0.06 mg/L [S] | ≤ 0.008 mg/L [S] | 0.06 mg/L [S] | 0.5 mg/L [S] | 0.015 mg/L [S] | ≤ 0.015 mg/L [S] | 0.5 mg/L [S] | 0.015 mg/L [S] | 0.015 mg/L [S]
Candida albicans isolate 62 (Erg11p: E266D,G129A, Fur1p: WT, Tac1p: R869Q,L695F,I558V,A377V,F189S,M170V,L131I) | ≤ 0.06 mg/L [S] | 0.015 mg/L [S] | 0.12 mg/L [S] | 1 mg/L [S] | 0.015 mg/L [S] | ≤ 0.015 mg/L [S] | 0.5 mg/L [S] | 0.06 mg/L [S] | 0.03 mg/L [S]
Candida albicans isolate 368 (Erg11p: E266D,G129A, Fur1p: WT, Tac1p: R869Q,L695F,I558V,A377V,F189S,M170V,L131I) | ≤ 0.06 mg/L [S] | ≤ 0.008 mg/L [S] | 0.03 mg/L [S] | 0.5 mg/L [S] | 0.015 mg/L [S] | ≤ 0.015 mg/L [S] | 0.5 mg/L [S] | 0.015 mg/L [S] | 0.015 mg/L [S]
Candida albicans isolate 20 (Erg11p: WT, Fur1p: WT, Tac1p: I558V,A377V,F189S,N174D,M170I,K87N) | ≤ 0.06 mg/L [S] | 0.03 mg/L [S] | 0.06 mg/L [S] | 1 mg/L [S] | 0.015 mg/L [S] | ≤ 0.015 mg/L [S] | 0.5 mg/L [S] | 0.06 mg/L [S] | 0.06 mg/L [S]
Candida albicans isolate 58 (Erg11p: WT, Fur1p: WT, Tac1p: WT) | ≤ 0.06 mg/L [S] | ≤ 0.008 mg/L [S] | ≤ 0.015 mg/L [S] | 0.25 mg/L [S] | 0.015 mg/L [S] | ≤ 0.015 mg/L [S] | 0.25 mg/L [S] | ≤ 0.008 mg/L [S] | 0.03 mg/L [S]
Candida albicans isolate 228 (Erg11p: K342R,E266D, Fur1p: WT, Tac1p: I558V,A377V,F189S,N174D,M170I,K87N) | ≤ 0.06 mg/L [S] | ≥ 8 mg/L [R] | 8 mg/L [R] | ≥ 256 mg/L [R] | 0.015 mg/L [S] | 0.12 mg/L [S] | 0.5 mg/L [S] | ≥ 8 mg/L [R] | 0.03 mg/L [S]
Candida albicans isolate 367 (Erg11p: E266D, Fur1p: WT, Tac1p: T885K,I558V,A430V,A377V,F189S,N174D,M170I,M170V,K87N) | ≤ 0.06 mg/L [S] | ≤ 0.008 mg/L [S] | ≤ 0.015 mg/L [S] | 0.25 mg/L [S] | 0.015 mg/L [S] | ≤ 0.015 mg/L [S] | 0.25 mg/L [S] | 0.015 mg/L [S] | 0.03 mg/L [S]
Candida albicans isolate 333 (Erg11p: V488I,E266D, Fur1p: P119S, Tac1p: M170V) | ≤ 0.06 mg/L [S] | ≤ 0.008 mg/L [S] | 0.03 mg/L [S] | ≤ 0.12 mg/L [S] | ≤ 0.008 mg/L [S] | 0.03 mg/L [S] | 0.5 mg/L [S] | 0.015 mg/L [S] | 0.03 mg/L [S]
Candida albicans isolate 304 (Erg11p: D153E, Fur1p: WT, Tac1p: I558V,A377V,M170V) | ≤ 0.06 mg/L [S] | ≤ 0.008 mg/L [S] | 0.03 mg/L [S] | 1 mg/L [S] | 0.015 mg/L [S] | 0.03 mg/L [S] | 0.5 mg/L [S] | 0.015 mg/L [S] | 0.03 mg/L [S]
Candida albicans isolate 342 (Erg11p: V488I,E266D, Fur1p: WT, Tac1p: N896S,I558V,A377V,F189S,N174D,M170I,K87N) | ≤ 0.06 mg/L [S] | ≤ 0.008 mg/L [S] | ≤ 0.015 mg/L [S] | 0.5 mg/L [S] | 0.015 mg/L [S] | 0.06 mg/L [S] | 0.25 mg/L [S] | 0.015 mg/L [S] | 0.03 mg/L [S]
Candida albicans isolate 179 (Erg11p: V488I,E266D, Fur1p: WT, Tac1p: N896S) | ≤ 0.06 mg/L [S] | 0.03 mg/L [S] | 0.12 mg/L [S] | 2 mg/L [S] | 0.015 mg/L [S] | ≤ 0.015 mg/L [S] | 0.5 mg/L [S] | 0.06 mg/L [S] | 0.06 mg/L [S]
Candida albicans isolate 274 (Erg11p: E266D, Fur1p: WT, Tac1p: T885K,I558V,A430V,A377V,F189S,N174D,M170I,M170V,K87N) | ≤ 0.06 mg/L [S] | ≤ 0.008 mg/L [S] | 0.06 mg/L [S] | 0.25 mg/L [S] | ≤ 0.008 mg/L [S] | 0.03 mg/L [S] | 1 mg/L [S] | 0.03 mg/L [S] | 0.03 mg/L [S]
